{
  "source": "PubChem BioAssay AID1346428",
  "about": "(National Center for Advancing Translational Sciences (NCATS), 2018)",
  "note": "Hit rate of the full screen: of about 48,000 compounds, about 1,200 (2.5%) were called active. Inconclusive results (about 2%) are left out.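 The calls were made as follows: active = activation of at least 60% and not above a set upper limit (about 1 call in 100 departs from these limits); inconclusive = activation of 40% to 60%, or above that upper limit; inactive = activation under 40%.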 This is one part of the list.",
  "data": [
    {"biological_target": "Probable G-protein coupled receptor 32 (Homo sapiens) (UniProt O75388)", "sequence (O75388 whole entry, looked up, the tested form may be a part)": "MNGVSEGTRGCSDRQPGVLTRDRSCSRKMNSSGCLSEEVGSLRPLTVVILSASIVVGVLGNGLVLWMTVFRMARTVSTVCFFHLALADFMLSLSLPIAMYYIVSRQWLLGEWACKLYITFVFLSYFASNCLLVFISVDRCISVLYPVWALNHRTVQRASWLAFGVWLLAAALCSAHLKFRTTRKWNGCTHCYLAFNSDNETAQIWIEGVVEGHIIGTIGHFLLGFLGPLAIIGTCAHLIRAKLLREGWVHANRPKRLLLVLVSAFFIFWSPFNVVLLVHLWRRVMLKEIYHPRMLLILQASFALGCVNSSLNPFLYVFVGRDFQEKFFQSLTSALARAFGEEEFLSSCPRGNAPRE", "test": "qHTS for Agonists of Human Resolvin D1 Receptor DRV1; also: 0% is about no effect", "conditions": "CHO-K1 GPR32 beta-arrestin PathHunter luminescence, 90 min; at 76.9 µM; active compounds read high; zero percent set by DMSO-only wells", "procedure,_shortened": "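Agonism was scored by beta-Gal fragment complementation (chemiluminescent read, 1 h detection at ambient temperature) reporting beta-arrestin binding to GPR32 in engineered CHO-K1 cells. Compound treatment lasted 90 min at 37 C, normalized to a DMSO basal control.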", "values": [
      {"smiles": "COc1ccc(CNC(=O)c2cnn3c(C)c(Cc4ccc(F)cc4)c(C)nc23)cc1", "activation": "inactive: -3.03%"},
      {"smiles": "CC(C)OCCCNC(=O)CCCn1c(SCC(=O)c2ccc(Br)cc2)nc2c(sc3ccccc32)c1=O", "activation": "inactive: -12.1%"},
      {"smiles": "Cc1cc(C)c(NC(=O)Cn2c(=O)n(CCCCC(=O)NCc3ccccc3Cl)c(=O)c3ccccc32)c(C)c1", "activation": "inactive: -4.27%"},
      {"smiles": "COc1cc(CN(CC2CCCO2)C(=O)c2ccccc2F)cc(OC)c1OC", "note": "(stereo not given)", "activation": "inactive: -2.88%"},
      {"smiles": "COc1cccc(C(c2sc3nc(-c4ccco4)nn3c2O)N2CCCC2)c1", "note": "(stereo not given)", "activation": "inactive: 28.2%"},
      {"smiles": "COc1ccccc1Cn1ccn(CC(=O)Nc2c(C)cc(C)cc2C)c(=O)c1=O", "activation": "inactive: -9.06%"},
      {"smiles": "CC(C)C(=O)NC1CC(=O)N(c2ccc3c(c2)OCCO3)C1", "note": "(stereo not given)", "activation": "inactive: -2.9%"},
      {"smiles": "Cc1nnc(N2CCN(c3ccc(Cl)cc3)CC2)c2c1nnn2Cc1ccc(F)cc1", "activation": "inactive: 5.71%"},
      {"smiles": "CC1CCCCN1C(=O)c1ccc2c(c1)N(Cc1ccc(Cl)cc1)C(=O)c1ccccc1S2=O", "note": "(stereo not given)", "activation": "inactive: -18.9%"},
      {"smiles": "COc1cc(OC)cc(C(=O)NCCc2csc(-c3cccc(C)c3)n2)c1", "activation": "inactive: 4.8%"},
      {"smiles": "CCc1ccc(NC(=O)C(=O)NCCc2sc(-c3ccc(OC)c(OC)c3)nc2C)cc1", "activation": "inactive: -7.22%"},
      {"smiles": "Cc1ccc(-n2nc(C)c3c(C)cc(=O)n(CC(=O)Nc4ccc(C(C)C)cc4)c32)cc1", "activation": "inactive: -7.64%"},
      {"smiles": "CN(C1CCCCC1)S(=O)(=O)c1ccc(F)c(C(=O)Nc2ccc(C(F)(F)F)cc2)c1", "activation": "inactive: -21.7%"},
      {"smiles": "COc1ccc(NC(=O)c2c(NCc3cccs3)sc3c2CCCCC3)cc1", "activation": "inactive: 2.14%"},
      {"smiles": "Cc1c(C(=O)Nc2cccc(F)c2)sc2nc(-c3cc4ccccc4oc3=O)[nH]c(=O)c12", "activation": "inactive: -5.44%"},
      {"smiles": "O=C(NCc1ccccc1Cl)c1ccc2c(c1)N(Cc1ccccc1)C(=O)c1ccccc1S2", "activation": "inactive: -21.2%"},
      {"smiles": "CCOC(=O)c1[nH]c2ccccc2c1NC(=O)c1c(F)cccc1F", "activation": "inactive: -16.3%"},
      {"smiles": "CCOC(=O)c1sc2ncn(CC(=O)Nc3cccc(C)c3)c(=O)c2c1C", "activation": "inactive: 2.39%"},
      {"smiles": "COc1cccc(OCCCn2c(-c3ccc(Cl)cc3)nc3ccccc3c2=O)c1", "activation": "inactive: 2.34%"},
      {"smiles": "CCc1cccc(NC(=O)c2cc(-c3ccccc3)n[nH]2)c1", "activation": "inactive: -0.275%"},
      {"smiles": "O=C(Nc1cccc(Cl)c1)C1CCN(c2nc3ccccc3nc2C(F)(F)F)CC1", "activation": "inactive: -14.7%"},
      {"smiles": "O=C(c1ccc2c(c1)CCN2S(=O)(=O)c1ccc(Cl)cc1)N1CCN(c2ccccc2F)CC1", "activation": "inactive: -8.97%"},
      {"smiles": "COc1ccc(Nc2ncc(C(=O)N3CCN(c4ccc(OC)cc4)CC3)c3ccccc23)cc1", "activation": "inactive: 45.7%"},
      {"smiles": "CCCCNC(=O)c1cnc2sc(N3CCCCC3)nn2c1=O", "activation": "inactive: 10.6%"},
      {"smiles": "Cc1ccccc1Cn1c(=O)n(Cc2ccco2)c(=O)c2oc3ccccc3c21", "activation": "inactive: -18.5%"},
      {"smiles": "Cc1c(F)cccc1NS(=O)(=O)c1cccs1", "activation": "inactive: -7.21%"},
      {"smiles": "Cc1cc(OC(C)C(=O)N2CCN(CCc3ccccn3)CC2)ccc1Cl", "note": "(stereo not given)", "activation": "inactive: 39.3%"},
      {"smiles": "Cc1nc2c(c(SCC(=O)Nc3ccccc3C(F)(F)F)n1)CCC2", "activation": "inactive: -4.43%"},
      {"smiles": "CN(C)c1ccc(CN2CCc3nc(N4CCN(c5ccccn5)CC4)ncc3C2)cc1", "activation": "inactive: -2.71%"},
      {"smiles": "CCOc1ccccc1N1CC(c2nc3ccccc3n2CCCOc2ccccc2)CC1=O", "note": "(stereo not given)", "activation": "inactive: -1.9%"},
      {"smiles": "CCOc1ccccc1C(N)=O", "activation": "inactive: -64.4%"},
      {"smiles": "CCC(CC)C(=O)Nc1ccc(OCc2cc(=O)n3ccc(C)cc3n2)cc1", "activation": "inactive: -6.63%"},
      {"smiles": "CCOC(=O)C1CCN(C(=O)c2nn(-c3ccc(C)cc3)c(=O)c3c2c2ccccc2n3C)CC1", "activation": "inactive: -3.19%"},
      {"smiles": "CC(C)N(Cc1ccccc1)C(=O)c1cc2ccc3cccnc3c2[nH]1", "activation": "inactive: 11.7%"},
      {"smiles": "Cc1ccc(C(=O)Nc2ccc(C(=O)O)cc2)cc1S(=O)(=O)Nc1ccccc1", "activation": "inactive: -13.1%"},
      {"smiles": "COc1cccc2c1cc1c(=O)n(CC(=O)N3CCCCC3)nc(C)n12", "activation": "inactive: -7.35%"},
      {"smiles": "CCC(C)NS(=O)(=O)c1ccc(N2CCCCS2(=O)=O)cc1", "note": "(stereo not given)", "activation": "inactive: 0.983%"},
      {"smiles": "COc1ccc(C)cc1NC(=O)C1CCCN(S(=O)(=O)c2ccc3c(c2)CCCN3C(C)=O)C1", "note": "(stereo not given)", "activation": "inactive: -10.1%"},
      {"smiles": "Fc1cccc(NCc2ccccc2-c2nnc(-c3ccccc3Cl)o2)c1", "activation": "inactive: -13.6%"},
      {"smiles": "NC(=O)C1CCN(c2ncnc3c2cnn3-c2ccccc2)CC1", "activation": "inactive: 4.98%"},
      {"smiles": "O=c1c2oc3ccccc3c2n(Cc2ccc(Cl)cc2)c(=O)n1Cc1ccc2c(c1)OCO2", "activation": "inactive: -18.6%"},
      {"smiles": "Cc1ccc(-n2c3c(c(=O)[nH]c2=O)C(NS(=O)(=O)c2ccc(Cl)cc2)(C(F)(F)F)C(=O)N3)cc1", "note": "(stereo not given)", "activation": "inactive: 0.244%"},
      {"smiles": "CCC(CC)C(=O)Nc1nnc(SCc2cc(=O)c3ccccc3[nH]2)s1", "activation": "active: 99%"},
      {"smiles": "COCCNC(=O)CSc1nc2cc3c(cc2c(=O)n1CCCC(=O)NCCc1ccc(OC)c(OC)c1)OCO3", "activation": "inactive: -15.1%"},
      {"smiles": "Cc1ccc(Cl)cc1N1CCN(C2(c3ccccc3)C(=O)c3ccccc3C2=O)CC1", "activation": "inactive: -22.1%"},
      {"smiles": "COc1cccc(NC(=O)Cn2c(=O)n(-c3cccc(OC)c3)c(=O)c3sc4ccccc4c32)c1", "activation": "inactive: 4.33%"},
      {"smiles": "CCCCNC(=O)CCCN1C(=O)CCn2nc(-c3cccn3C)cc21", "activation": "inactive: -14.5%"},
      {"smiles": "CCOCCCNC(=O)CN1C(=O)c2cccnc2Sc2ccccc21", "activation": "inactive: -4.71%"},
      {"smiles": "CCC(C)(C)NC(=O)C1CCC(CNS(=O)(=O)c2ccc3c(c2)CC(C)N3C(C)=O)CC1", "note": "(stereo not given)", "activation": "inactive: 12%"},
      {"smiles": "CCN(CC)CCn1c(=O)c(Cc2ccc(OC)cc2)nc2ccccc21", "activation": "inactive: -13.6%"},
      {"smiles": "COc1ccc2c(CNCc3ccco3)c(C(=O)O)n(Cc3ccc(F)cc3Cl)c2c1", "activation": "inactive: -21.5%"},
      {"smiles": "Fc1ccccc1N1CCN(c2nnc(C(F)(F)F)c3nnn(Cc4ccccc4)c23)CC1", "activation": "inactive: -0.964%"},
      {"smiles": "O=C(Cn1c(SCCOc2ccccc2Cl)nc2ccccc21)N1CCOCC1", "activation": "inactive: -3.71%"},
      {"smiles": "CCc1ccc(NC(=O)CSc2nc(-c3ccccc3)no2)cc1", "activation": "inactive: 30.5%"},
      {"smiles": "COc1ccc(CCNc2ncnc3c2nnn3C)cc1OC", "activation": "inactive: 6.77%"},
      {"smiles": "CN(C)S(=O)(=O)N(CC(=O)Nc1ccc(Br)cc1F)c1ccccc1", "activation": "inactive: 28.7%"},
      {"smiles": "Cc1cc(C)cc(NC(=O)c2sc3nc[nH]c(=O)c3c2C)c1", "activation": "inactive: -2.12%"},
      {"smiles": "CCOC(=O)Cn1c(=O)n(CC2CCCO2)c2nc(-c3ccccc3Cl)nc(C(N)=O)c21", "note": "(stereo not given)", "activation": "inactive: -13.3%"},
      {"smiles": "CCOc1ccc(N(CC)C(=O)c2noc3c2COc2ccc(C)cc2-3)cc1", "activation": "inactive: -12%"},
      {"smiles": "COc1ccccc1C(=O)Nc1c(C(=O)c2ccccc2)oc2ccccc12", "activation": "inactive: -8.14%"},
      {"smiles": "O=c1c(N2CCc3ccccc3C2)csc2ccc(F)cc12", "activation": "inactive: -22.3%"},
      {"smiles": "CC1=C(C(=O)Nc2ccccc2C)C(c2cccs2)n2nc(SCc3cc(C)ccc3C)nc2N1", "note": "(stereo not given)", "activation": "inactive: -3.61%"},
      {"smiles": "CCOC(=O)c1ccc(CN(Cc2ccc(OC)cc2)S(=O)(=O)c2cccc(C(F)(F)F)c2)cc1", "activation": "inactive: -7.14%"},
      {"smiles": "O=C(CCCn1c(=O)c2cccn2c2cccnc21)Nc1ccccc1C(F)(F)F", "activation": "inactive: -9.03%"},
      {"smiles": "CCOc1ccccc1NC(=O)C1=C(C)Nc2ncnn2C1c1sccc1C", "note": "(stereo not given)", "activation": "inactive: -6.05%"},
      {"smiles": "Cc1ccc(CNC(=O)c2c(-c3ccc(Br)cc3)noc2C)o1", "activation": "inactive: -19.1%"},
      {"smiles": "CCn1c2c(c(=O)n3ncc(C(=O)Nc4ccc(C(=O)OC)cc4)c13)CN(Cc1ccc(OC)cc1)CC2", "activation": "inactive: -1.25%"},
      {"smiles": "COc1ccc(C)cc1NC(=O)c1ccc2nc(Cc3ccccc3)oc2c1", "activation": "inactive: -24.2%"},
      {"smiles": "COc1ccc(CCNC(=O)c2c(O)nc3c(C)cccn3c2=O)cc1OC", "activation": "inactive: -1.21%"},
      {"smiles": "Cc1c(C(=O)NCc2ccccc2)oc2ccc(S(=O)(=O)N3CCC(C)CC3)cc12", "activation": "inactive: -7.15%"},
      {"smiles": "Cc1ccc(NC(=O)C(=O)NCC(c2cccnc2)N2CCN(C)CC2)cc1", "note": "(stereo not given)", "activation": "inactive: -3.01%"},
      {"smiles": "O=C(NCCc1ccc(Cl)cc1)C(=O)NCC(c1ccco1)S(=O)(=O)c1ccccc1", "note": "(stereo not given)", "activation": "inactive: 12.5%"},
      {"smiles": "CCn1c(CN2CCCCC2)nc2cc(NC(=O)COc3ccccc3C(C)(C)C)ccc21", "activation": "inactive: 9.08%"},
      {"smiles": "Cc1coc2c1c(C)cc1oc(=O)c(CC(=O)NCCc3ccc(Cl)cc3)c(C)c12", "activation": "inactive: -20.7%"},
      {"smiles": "COc1ccc(N2CCN(C(=O)c3cc(-c4ccc(C)c(F)c4)on3)CC2)cc1", "activation": "inactive: 5.2%"},
      {"smiles": "Cc1c(C(=O)NCCc2ccc(Cl)cc2)cccc1-n1cnc2cccnc21", "activation": "inactive: -3.69%"},
      {"smiles": "COc1ccc(N2CCN(C(=O)CSc3nc4ccccc4nc3Cc3ccc(Cl)cc3)CC2)cc1", "activation": "inactive: -21.2%"},
      {"smiles": "COc1ccc(NC(=O)c2c(N)c(C(=O)c3ccc(OC)cc3)n3ccccc23)cc1", "activation": "inactive: 8.94%"},
      {"smiles": "CCCn1c(/C=C/c2ccccc2)nc2ccccc21", "activation": "inactive: 2.43%"},
      {"smiles": "CCn1c2ccccc2c2cc(CN3CCN(Cc4ccc(OC)c(OC)c4)CC3)ccc21", "activation": "inactive: -22.4%"},
      {"smiles": "CCOc1ccc(CC(=O)NCCS(=O)(=O)N2CCN(c3ccc(OC)cc3)CC2)cc1", "activation": "inactive: -14.1%"},
      {"smiles": "COc1ccc(C(C(=O)Nc2ccc(C(C)C)cc2)N(C)C(=O)Cc2cccs2)cc1", "note": "(stereo not given)", "activation": "inactive: -26.4%"},
      {"smiles": "O=C(Nc1ccc(OC(F)(F)F)cc1)C1CCCN(S(=O)(=O)c2ccc(Br)s2)C1", "note": "(stereo not given)", "activation": "inactive: -10.6%"},
      {"smiles": "O=C(Cc1csc2ccccc12)NCc1ccc(F)cc1", "activation": "inactive: -18.7%"},
      {"smiles": "Cc1ccccc1Nc1nnc(-c2ccc(C)c(S(=O)(=O)N3CCN(C)CC3)c2)c2ccccc12", "activation": "inactive: 7.83%"}
    ]}
  ]
}
